# Measured values as given in PubChem BioAssay (Tox21).
# Values joined by “and” are separate entries in the source; they are usually repeats but may differ in a detail not shown here. Identical values can stand only once. Active and inactive are the calls of the source. Unless noted, calls come from the whole dose curve; as a rule, active = well fitted curve in the direction sought with a large enough effect in the repeat runs; inconclusive = weak or mixed curves; inactive = no such curve, though single readings can be large; an effect the other way counts as inactive or inconclusive.
# How the values were obtained:
# [1] = molecular target: Androgen receptor (Homo sapiens) (UniProt P10275); assay: qHTS assay to identify small molecule antagonists of the androgen receptor (AR) signaling pathway (AID 743035; active = well fitted inhibition curve with a large enough effect in the signal ratio in the repeat runs, not every such curve was filed as active; inconclusive = weak or mixed curves, or effect the other way; inactive = no such curve, though single readings can be large or run the other way; the % refers to the signal ratio; note: % is set by controls: 0 for no effect and ±100 for the full control effect); settings: HEK293 AR-UAS-bla, R1881-stimulated, beta-lactamase FRET, 16 h; activity change, negative = inhibition: at 58.5 µM (top of the series) unless noted
# UniProt P10275, sequence (P10275 whole entry, looked up): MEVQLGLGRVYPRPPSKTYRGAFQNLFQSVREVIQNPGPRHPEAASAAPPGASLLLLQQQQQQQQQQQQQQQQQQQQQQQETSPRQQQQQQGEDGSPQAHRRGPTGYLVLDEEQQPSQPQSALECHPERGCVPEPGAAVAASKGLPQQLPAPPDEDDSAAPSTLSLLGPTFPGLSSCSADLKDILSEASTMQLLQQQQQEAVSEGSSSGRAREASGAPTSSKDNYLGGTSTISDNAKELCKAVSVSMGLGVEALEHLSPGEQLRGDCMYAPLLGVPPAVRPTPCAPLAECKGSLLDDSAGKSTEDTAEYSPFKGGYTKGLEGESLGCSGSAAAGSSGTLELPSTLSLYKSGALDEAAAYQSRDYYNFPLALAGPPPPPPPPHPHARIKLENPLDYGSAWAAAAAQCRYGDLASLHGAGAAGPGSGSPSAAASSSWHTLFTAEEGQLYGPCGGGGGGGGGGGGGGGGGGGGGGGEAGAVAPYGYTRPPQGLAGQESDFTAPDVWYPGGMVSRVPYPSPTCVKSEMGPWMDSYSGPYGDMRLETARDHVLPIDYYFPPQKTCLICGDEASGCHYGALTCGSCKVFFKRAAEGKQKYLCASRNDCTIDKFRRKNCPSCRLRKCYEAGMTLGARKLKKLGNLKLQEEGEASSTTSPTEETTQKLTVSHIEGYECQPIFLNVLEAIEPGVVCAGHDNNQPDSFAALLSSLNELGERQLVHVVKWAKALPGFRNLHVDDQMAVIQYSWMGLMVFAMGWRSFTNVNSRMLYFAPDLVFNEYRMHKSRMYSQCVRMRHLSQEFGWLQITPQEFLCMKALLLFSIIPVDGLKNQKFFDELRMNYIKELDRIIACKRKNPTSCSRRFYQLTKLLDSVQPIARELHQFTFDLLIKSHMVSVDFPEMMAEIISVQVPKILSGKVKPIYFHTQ
# Procedure, shortened: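 Steps: seed AR-UAS-bla GripTite HEK293 cells, incubate 4 h at 37C; pin in test compound, then add agonist R1881; incubate 16 h at 37C; add LiveBLAzer B/G FRET substrate, 2 h at room temperature; read fluorescence.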
# [2] = qHTS assay to identify small molecule antagonists of the androgen receptor (AR) signaling pathway using the MDA cell line - cell viability counter screen (AID 743041; note: potency is the fitted concentration of half-maximal effect; for all read-outs here: nearly all actives have a fitted effect of over 45% in size; for viability change, negative = cytotoxic: % is set by controls: 0 for no effect and ±100 for the full control effect); settings: MDA-kb2 viability, CellTiter-Fluor, 16 h, cells co-treated with R1881 androgen agonist; for Potency: viability change, negative = cytotoxic: at 70.3 µM (top of the series) unless noted
# Procedure, shortened: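 Viability read by CellTiter-Fluor fluorescence in the same wells as the antagonist screen, added after 15.5 h of a 16 h, 37C exposure. Human breast carcinoma MDA-kb2 AR-luc cells, compounds co-dosed with agonist R1881.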
# [3] = qHTS assay to identify small molecule antagonists of the thyroid receptor (TR) signaling pathway - cell viability counter screen (AID 743064); settings: GH3.TRE-Luc viability, CellTiter-Fluor, 24 h; activity change, negative = cytotoxic: at 70.3 µM (top of the series) unless noted; note: nearly all actives have a fitted effect of over 50% in size; note: potency is the fitted concentration of half-maximal effect
# Procedure, shortened: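 Fluorescence from CellTiter-Fluor, added after 23.5 h exposure at 37 °C, reported viability of GH3.TRE-Luc cells co-treated with compound and 1 nM T3. Measured in the same wells as the luciferase TR readout.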
# [4] = qHTS assay to identify small molecule antagonists of the thyroid receptor (TR) signaling pathway (AID 743065); note: potency is the fitted concentration of half-maximal effect; nearly all actives have a fitted effect of over 55% in size
# Procedure, shortened: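 Antagonism measured as loss of luciferase signal in GH3 cells stably carrying a TRE-luciferase reporter, co-treated with compound and T3 (1 nM final) for 23.5 h at 37 C. Viability was read in the same well by CellTiter-Fluor.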
# [5] = qHTS assay to identify small molecule antagonists of the estrogen receptor alpha (ER-alpha) signaling pathway - cell viability counter screen (AID 743074; calls by dose curve;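 note: HEK293 cells carrying ER-alpha-UAS-bla reporter stimulated with 17beta-estradiol; nearly all actives have a fitted effect of over 45% in size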; note: potency is the fitted concentration of half-maximal effect)
# [6] = qHTS assay to identify small molecule antagonists of the estrogen receptor alpha (ER-alpha) signaling pathway using the BG1 cell line - cell viability counter screen (AID 743081); settings: BG1Luc4E2 viability, CellTiter-Fluor, 22 h; activity change, negative = cytotoxicity: at 70.3 µM (top of the series);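 note: compound given together with 17beta-estradiol as the ER stimulus; potency is the fitted concentration of half-maximal effect; nearly all actives have a fitted effect of over 45% in size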
# [7] = qHTS assay to identify aromatase inhibitors - cell viability counter screen (AID 743084); settings: MCF-7 aro ERE viability, CellTiter-Fluor, 24 h; activity change, negative = cytotoxicity: at 70.3 µM (top of the series) unless noted;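 note: cells stimulated with testosterone during compound exposure; nearly all actives have a fitted effect of over 55% in size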; note: potency is the fitted concentration of half-maximal effect
# [8] = molecular target: Androgen receptor (Homo sapiens) (UniProt P10275); assay: qHTS assay to identify small molecule agonists of the androgen receptor (AR) signaling pathway using the MDA cell line (AID 743040; note: % is set by controls: 0 for no effect and ±100 for the full control effect; nearly all actives have a fitted effect of over 20% in size); settings: MDA-kb2 AR-luc cells, MMTV luciferase, 16 h; activity change: at 95 µM (top of the series), stronger effect = higher value
# Procedure, shortened: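 Luciferase agonist assay: 16 h compound exposure at 37C without CO2 in MDA-kb2 AR-luc cells, whose MMTV promoter responds to both AR and GR. Luminescence measured after 30 min room-temperature incubation with ONE-Glo.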
# [9] = molecular target: Androgen receptor (Homo sapiens) (UniProt P10275); assay: qHTS assay to identify small molecule antagonists of the androgen receptor (AR) signaling pathway using the MDA cell line (AID 743042; note: potency is the fitted concentration of half-maximal effect; nearly all actives have a fitted effect of over 55% in size)
# Procedure, shortened: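 Antagonist mode: compounds plus R1881 agonist added to MDA-kb2 AR-luc cells, incubated 16 h at 37C. Luciferase reporter luminescence quantified, with multiplexed CellTiter-Fluor readout for cell viability.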
# [10] = molecular target: Peroxisome proliferator-activated receptor gamma (Homo sapiens) (UniProt P37231); assay: qHTS assay to identify small molecule agonists of the peroxisome proliferator-activated receptor gamma (PPARg) signaling pathway (AID 743094; active = well fitted activation curve with a large enough effect in the signal ratio in the repeat runs, not every such curve was filed as active; inconclusive = weak or mixed curves, or effect the other way; inactive = no such curve, though single readings can be large or run the other way; the % refers to the signal ratio; note: % is set by controls: 0 for no effect and ±100 for the full control effect); settings: HEK293H PPARg-UAS-bla, beta-lactamase FRET ratio, 17 h
# UniProt P37231, sequence (P37231 whole entry, looked up): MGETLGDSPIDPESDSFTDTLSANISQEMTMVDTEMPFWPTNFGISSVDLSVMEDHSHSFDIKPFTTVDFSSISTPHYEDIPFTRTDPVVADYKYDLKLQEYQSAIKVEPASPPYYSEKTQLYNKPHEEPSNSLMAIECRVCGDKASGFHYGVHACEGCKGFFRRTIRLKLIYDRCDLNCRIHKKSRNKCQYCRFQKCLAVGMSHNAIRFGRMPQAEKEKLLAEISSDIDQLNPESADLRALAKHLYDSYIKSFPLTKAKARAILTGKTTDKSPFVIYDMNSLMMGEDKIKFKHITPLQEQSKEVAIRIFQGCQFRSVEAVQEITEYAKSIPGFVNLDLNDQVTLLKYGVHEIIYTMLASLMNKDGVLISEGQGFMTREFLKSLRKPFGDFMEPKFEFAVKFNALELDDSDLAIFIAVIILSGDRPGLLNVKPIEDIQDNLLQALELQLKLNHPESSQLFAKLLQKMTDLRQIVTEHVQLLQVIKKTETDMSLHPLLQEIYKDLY
# Procedure, shortened: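 Cells from the PPARg UAS-bla HEK293H line are plated and incubated 5 h at 37C. Compounds in DMSO are pinned in and left 17 h at 37C. LiveBLAzer B/G substrate is then added for 1 h at room temperature before fluorescence is measured.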
# [11] = qHTS assay to identify small molecule that activate the aryl hydrocarbon receptor (AhR) signaling pathway - cell viability counter screen (AID 743086); note: nearly all actives have a fitted effect of over 45% in size; note: potency is the fitted concentration of half-maximal effect
# Procedure, shortened: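 Cytotoxicity counter screen: CellTiter-Fluor signal (30 min, 37 C) in 4000 HepG2 cells/well carrying the DRE-luciferase reporter, following 24 h compound exposure at 37 C.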
# [12] = molecular target: Aryl hydrocarbon receptor (Homo sapiens) (UniProt P35869); assay: qHTS assay to identify small molecule that activate the aryl hydrocarbon receptor (AhR) signaling pathway (AID 743085); note: potency is the fitted concentration of half-maximal effect; nearly all actives have a fitted effect of over 15% in size
# UniProt P35869, sequence (P35869 whole entry, looked up): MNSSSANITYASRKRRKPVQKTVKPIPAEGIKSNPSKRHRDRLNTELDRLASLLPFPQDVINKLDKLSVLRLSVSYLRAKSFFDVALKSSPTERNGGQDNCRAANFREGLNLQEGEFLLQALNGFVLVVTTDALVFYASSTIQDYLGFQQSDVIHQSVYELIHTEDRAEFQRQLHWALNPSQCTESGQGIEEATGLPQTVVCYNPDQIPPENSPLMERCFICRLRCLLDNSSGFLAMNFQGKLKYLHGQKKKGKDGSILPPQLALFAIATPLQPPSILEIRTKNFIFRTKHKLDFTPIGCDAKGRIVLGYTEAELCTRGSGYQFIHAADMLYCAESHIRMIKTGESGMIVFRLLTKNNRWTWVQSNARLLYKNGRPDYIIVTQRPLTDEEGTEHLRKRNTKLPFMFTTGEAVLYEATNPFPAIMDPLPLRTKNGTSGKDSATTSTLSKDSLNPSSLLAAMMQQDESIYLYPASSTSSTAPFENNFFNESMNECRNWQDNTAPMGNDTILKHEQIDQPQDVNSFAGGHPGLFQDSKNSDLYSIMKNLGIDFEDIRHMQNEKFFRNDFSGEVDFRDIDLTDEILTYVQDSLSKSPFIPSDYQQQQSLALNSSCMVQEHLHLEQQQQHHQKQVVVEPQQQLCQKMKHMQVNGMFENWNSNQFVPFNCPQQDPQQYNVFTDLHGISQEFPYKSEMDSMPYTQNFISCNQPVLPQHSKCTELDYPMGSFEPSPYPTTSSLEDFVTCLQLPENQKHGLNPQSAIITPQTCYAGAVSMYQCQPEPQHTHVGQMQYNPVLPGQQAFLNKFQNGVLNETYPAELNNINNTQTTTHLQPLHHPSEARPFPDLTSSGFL
# Procedure, shortened: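 Cell line HG2L7.5c1 (human hepatoma, 20× DRE-luc). Plated, 5 h 37C, compound/DMSO added, 24 h 37C. CellTiter-Fluor 30 min 37C → fluorescence; then ONE-Glo 30 min RT → luminescence.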
# [13] = system: thyroid hormone receptor (rat, GH3 cells); assay: qHTS assay to identify small molecule agonists of the thyroid receptor (TR) signaling pathway (AID 743066; calls by dose curve; note: % is set by controls: 0 for no effect and ±100 for the full control effect); settings: GH3.TRE-Luc cells, TR agonist luciferase, 24 h; activation: at 83.9 µM (top of the series) unless noted
# [14] = molecular target: Estrogen receptor (Homo sapiens) (UniProt P03372); assay: qHTS assay to identify small molecule agonists of the estrogen receptor alpha (ER-alpha) signaling pathway using the BG1 cell line (AID 743079); settings: BG1Luc4E2 cells, ERE-luciferase agonist, 22 h; activation: at 70.3 µM (top of the series) unless noted; note: potency is the fitted concentration of half-maximal effect; nearly all actives have a fitted effect of over 20% in size
# UniProt P03372, sequence (P03372 whole entry, looked up): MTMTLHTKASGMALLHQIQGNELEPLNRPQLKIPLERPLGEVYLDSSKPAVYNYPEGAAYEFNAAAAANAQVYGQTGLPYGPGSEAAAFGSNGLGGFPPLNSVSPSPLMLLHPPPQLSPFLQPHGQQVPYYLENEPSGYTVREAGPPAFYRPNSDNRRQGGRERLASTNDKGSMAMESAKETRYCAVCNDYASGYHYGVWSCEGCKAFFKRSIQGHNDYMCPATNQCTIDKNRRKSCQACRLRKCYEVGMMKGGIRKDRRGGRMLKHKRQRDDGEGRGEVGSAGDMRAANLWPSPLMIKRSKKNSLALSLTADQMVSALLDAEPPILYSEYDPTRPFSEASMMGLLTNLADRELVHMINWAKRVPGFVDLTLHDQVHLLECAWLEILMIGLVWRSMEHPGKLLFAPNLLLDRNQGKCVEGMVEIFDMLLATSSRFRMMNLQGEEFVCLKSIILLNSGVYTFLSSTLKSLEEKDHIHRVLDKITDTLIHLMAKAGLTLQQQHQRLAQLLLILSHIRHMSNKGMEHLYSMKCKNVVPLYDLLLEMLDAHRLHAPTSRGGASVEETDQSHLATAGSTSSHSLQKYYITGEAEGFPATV
# [15] = qHTS assay to identify small molecule antagonists of the estrogen receptor alpha (ER-alpha) signaling pathway using the BG1 cell line (AID 743080; calls by dose curve;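 note: BG1 cells stimulated with 17beta-estradiol alongside compound; nearly all actives have a fitted effect of over 25% in size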; note: potency is the fitted concentration of half-maximal effect); settings: BG1Luc4E2 ERE-luciferase antagonist mode, luminescence; activity change, negative = inhibition: at 70.3 µM (top of the series) unless noted
# Procedure, shortened: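 After 5 days in phenol-red-free 10% charcoal-stripped FBS medium, BG1-Luc-4E2 cells were seeded, left 24 h at 37 C, co-treated with compounds and 17beta-estradiol for 21.5 h, then assayed for viability and luciferase.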
# [16] = molecular target: Aromatase (Homo sapiens) (UniProt P11511); assay: qHTS assay to identify aromatase inhibitors (AID 743083); settings: MCF-7 aro ERE, testosterone-driven ERE luciferase, 24 h; activity, negative = inhibition: at 70.3 µM (top of the series); note: potency is the fitted concentration of half-maximal effect; nearly all actives have a fitted effect of over 55% in size
# UniProt P11511, sequence (P11511 whole entry, looked up): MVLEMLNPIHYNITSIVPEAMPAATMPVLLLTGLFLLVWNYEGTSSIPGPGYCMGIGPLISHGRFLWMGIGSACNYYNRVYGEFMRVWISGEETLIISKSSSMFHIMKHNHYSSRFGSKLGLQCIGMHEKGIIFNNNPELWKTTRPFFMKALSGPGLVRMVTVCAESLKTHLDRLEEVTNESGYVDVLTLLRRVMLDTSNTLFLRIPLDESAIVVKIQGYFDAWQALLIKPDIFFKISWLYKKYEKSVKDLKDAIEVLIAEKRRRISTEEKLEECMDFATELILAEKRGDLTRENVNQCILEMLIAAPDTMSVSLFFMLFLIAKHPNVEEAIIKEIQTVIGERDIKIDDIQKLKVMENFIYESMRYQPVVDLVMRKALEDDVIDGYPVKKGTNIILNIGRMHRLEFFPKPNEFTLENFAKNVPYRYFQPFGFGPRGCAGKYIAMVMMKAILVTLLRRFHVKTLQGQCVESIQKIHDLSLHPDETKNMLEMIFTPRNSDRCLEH
# [17] = molecular target: Estrogen receptor (Homo sapiens) (UniProt P03372); assay: qHTS assay to identify small molecule antagonists of the estrogen receptor alpha (ER-alpha) signaling pathway (AID 743069; active = well fitted curve in the direction sought with a large enough effect in the signal ratio in the repeat runs, not every such curve was filed as active; inconclusive = weak or mixed curves, or effect the other way; inactive = no such curve, though single readings can be large or run the other way; the % refers to the signal ratio; note: potency is the fitted concentration of half-maximal effect); settings: HEK293 ER-alpha-UAS-bla, beta-lactamase ratio, antagonist mode; activity, negative = inhibition: at 69.4 µM (top of the series) unless noted
# Procedure, shortened: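 Antagonist mode: compounds in DMSO were co-added with 17beta-estradiol to ER-alpha-bla HEK293 cells (2% charcoal-stripped serum) and left 18 h at 37C. Reporter inhibition was measured as FRET fluorescence after 2 h LiveBLAzer substrate at room temperature.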
# [18] = activation: at 57 µM (top of the series) unless noted
# Tags give direction and shape of the fitted curve or compound fluorescence and quenching.
smiles,measurement,setting,value
CC(C)(OOC(C)(C)c1ccccc1)c1ccccc1,Potency,[1],inactive
same,Potency,[2],inactive
same,Potency,[3],active: 42.7 µM and inconclusive: 48.6 µM [cytotoxic]
same,Potency,[4],active: 53.7 µM and active: 43.3 µM
same,Potency,[5],"inconclusive: 21.6 µM [cytotoxic, full curve, poor fit]"
same,Potency,[6],"inconclusive: 47.9 µM [rising, partial curve, poor fit]"
same,Potency,[7],inactive
CCCCCC[N+](=O)[O-],activity change,[8],inconclusive: 0.827% [phenotype inactive]
CCOP(=S)(OCC)OP(=S)(OCC)OCC,activity change,[8],inconclusive: 1.25% [phenotype inactive]
O=S(=O)(O)O,"viability change, negative = cytotoxic",[2]; at 8.47 µM (top of the series),inactive: -0.525% and inactive: -1.3%
same,"viability change, negative = cytotoxic",[2]; at 70.3 µM (top of the series),inactive: -1.36% [middle of 4 runs]
same,"viability change, negative = cytotoxic",[2]; at 95 µM (top of the series),inactive: 6.66%
C[C@@H]1CC[C@H]2[C@@H](C)C(=O)O[C@@H]3O[C@@]4(C)CC[C@@H]1[C@]32OO4,Potency,[9],active: 1.33 µM
COC(=O)Nc1nc2ccccc2[nH]1,activation,[10]; at 57 µM (top of the series),inactive: -0.346%
c1ccc(N=NNc2ccccc2)cc1,activation,[10]; at 57 µM (top of the series),inconclusive: -11.4%
same,activation,[10]; at 78.9 µM (top of the series),inconclusive: -13.4%
Cc1cc(C)cc(C)c1,Potency,[2],inactive
same,Potency,[3],inactive
same,Potency,[5],"inconclusive: 21.6 µM [rising, single point]"
CCCC[N+]1(C)CCCC1,Potency,[2],"inconclusive: 68.4 µM [rising, partial curve, poor fit]"
same,Potency,[3],"inconclusive: 13.8 µM [rising, single point]"
same,Potency,[5],"inconclusive: 22.1 µM [cytotoxic, partial curve, poor fit]"
same,Potency,[7],"inconclusive: 15.4 µM [rising, partial curve, poor fit] and inconclusive: 27.3 µM [rising, partial curve, poor fit]"
same,Potency,[11],inactive
COc1nn(CSP(=S)(OC)OC)c(=O)s1,Potency,[2],"inconclusive: 68.6 µM [cytotoxic, single point]"
same,Potency,[3],inconclusive: 43.3 µM [cytotoxic]
same,Potency,[5],"inconclusive: 19.5 µM [cytotoxic, partial curve, poor fit]"
same,Potency,[7],active: 68.6 µM
same,Potency,[12],inconclusive: 45.8 µM [activator]
same,activation,[10]; [18],inconclusive: 7.53%
C=CC(=C)C,Potency,[2],"inconclusive: 68.5 µM [cytotoxic, single point]"
same,Potency,[13],inactive
same,Potency,[14],"inconclusive: 34.3 µM [activator, partial curve]"
same,Potency,[15],"inconclusive: 15.3 µM [rising, partial curve]"
same,Potency,[12],"inconclusive: 54.4 µM [activator, partial curve]"
Cc1c(Cl)c(=O)oc2cc(OP(=O)(OCCCl)OCCCl)ccc12,Potency,[2],"inconclusive: 24.8 µM [rising, partial curve]"
same,Potency,[3],"inconclusive: 23.7 µM [rising, partial curve]"
same,Potency,[6],"inconclusive: 26.6 µM [rising, partial curve]"
same,Potency,[7],"inconclusive: 29.8 µM [rising, partial curve]"
same,Potency,[12],"inconclusive: 13.3 µM [activator, single point]"
OCCBr,Potency,[2],inactive
same,Potency,[3],inactive
same,Potency,[15],inactive
same,Potency,[7],inactive
CCCC(Cn1cncn1)c1ccc(Cl)cc1Cl (stereo not given),Potency,[2],"inconclusive: 61.1 µM [cytotoxic, single point]"
same,Potency,[3],"inconclusive: 68.6 µM [cytotoxic, single point]"
same,Potency,[5],"inconclusive: 38.9 µM [cytotoxic, partial curve, poor fit]"
same,activation,[10]; [18],inconclusive: -15.6%
C=C(C)C(=O)OCCCCOC(=O)C(=C)C,Potency,[2],"inconclusive: 77 µM [rising, partial curve, poor fit]"
same,Potency,[13],inactive
same,Potency,[16],"inconclusive: 1.54 µM [inhibitor, partial curve, poor fit]"
O=C1NCN(c2ccccc2)C12CCN(CCCOc1ccc(F)cc1)CC2,Potency,[2],"inconclusive: 29.8 µM [cytotoxic, single point]"
same,Potency,[4],active: 16.8 µM
same,activation,[13],inconclusive: -6.85% [phenotype inactive]
same,Potency,[17],active: 10.7 µM [inconclusive]
same,Potency,[5],inactive
same,Potency,[14],"inconclusive: 7.5 µM [inhibitor, full curve]"
same,Potency,[15],"inconclusive: 13.3 µM [falling, full curve]"
same,Potency,[6],"inconclusive: 10.6 µM [cytotoxic, partial curve]"
same,Potency,[11],active: 5.31 µM
